# Measurements published in the supplement of paper PMC8728848.
# The list shows a part of the results.
# B1: SGC, Q9M345 (protein)
# chain: QNLNFTYNGFHPPLTDISLQGLATVTPNGLLKLTNTSVQKTGHAFCTERIRFKDSQNGNVSSFSTTFVFAIHSQIPTLSGHGIAFVVAPTLGLPFALPSQYIGLFNISNNGNDTNHIFAVEFDTIQSSEFGDPNDNHVGIDLNGLRSANYSTAGYRDDHDKFQNLSLISRKRIQVWIDYDNRSHRIDVTVAPFDSDKPRKPLVSYVRDLSSILLEDMYVGFSSATGSVLSEHFLVGWSFRLNGEAPMLSLSKLPKLPRFEPRRIS
# Assays:
# Assay in all cases: glycan array binding signal (z-score within array); higher = stronger binding
# Settings in all cases: glycan notation: IUPAC condensed, linker removed
# [1] = molecular target: Gal(a1-3)Gal(b1-4)GlcNAc
# Method in brief: (§1)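 The binding signal is a Z-score computed within each array and averaged over linkers. Arrays of the same protein sequence at different concentrations or buffers were also averaged together. Data originate from 3228 arrays in the Consortium for Functional Glycomics database, kept only where the protein sequence was available.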
# [2] = molecular target: Gal(a1-3)Gal(b1-4)GlcNAc(b1-2)Man
# Method in brief: as §1
# [3] = molecular target: Gal(a1-3)Gal(b1-4)GlcNAc(b1-2)Man(a1-3)[Gal(a1-3)Gal(b1-4)GlcNAc(b1-2)Man(a1-6)]Man(b1-4)GlcNAc(b1-4)GlcNAc
# Method in brief: as §1
# [4] = molecular target: Gal(a1-3)Gal(b1-4)GlcNAc(b1-3)GalNAc
# Method in brief: as §1
# [5] = molecular target: Gal(a1-3)Gal(b1-4)GlcNAc(b1-6)GalNAc
# Method in brief: as §1
# [6] = molecular target: Gal(a1-3)Gal(b1-4)[Fuc(a1-3)]GlcNAc
# Method in brief: as §1
# [7] = molecular target: Gal(a1-3)Gal(b1-4)[Fuc(a1-3)]GlcNAc(b1-2)Man(a1-3)[Gal(a1-3)Gal(b1-4)[Fuc(a1-3)]GlcNAc(b1-2)Man(a1-6)]Man(b1-4)GlcNAc(b1-4)GlcNAc
# Method in brief: as §1
# [8] = molecular target: Gal(a1-3)GalNAc
# Method in brief: as §1
# [9] = molecular target: Gal(a1-3)[Gal(a1-4)]Gal(b1-4)GlcNAc
# Method in brief: as §1
# [10] = molecular target: Gal(a1-4)Gal(b1-3)GlcNAc(b1-2)Man(a1-3)[Gal(a1-4)Gal(b1-3)GlcNAc(b1-2)Man(a1-6)]Man(b1-4)GlcNAc(b1-4)GlcNAc
# Method in brief: as §1
# [11] = molecular target: Gal(a1-4)Gal(b1-4)Glc
# Method in brief: as §1
# [12] = molecular target: Gal(a1-4)Gal(b1-4)GlcNAc
# Method in brief: as §1
# [13] = molecular target: Gal(a1-4)Gal(b1-4)GlcNAc(b1-2)Man(a1-3)[Gal(a1-4)Gal(b1-4)GlcNAc(b1-2)Man(a1-6)]Man(b1-4)GlcNAc(b1-4)GlcNAc
# Method in brief: as §1
# [14] = molecular target: Gal(a1-4)Gal(b1-4)GlcNAc(b1-3)Gal(b1-4)Glc
# Method in brief: as §1
# [15] = molecular target: Gal(a1-4)GlcNAc
# Method in brief: as §1
# [16] = molecular target: Gal(a1-6)Glc
# Method in brief: as §1
# [17] = molecular target: Gal(b1-2)Gal
# Method in brief: as §1
# [18] = molecular target: Gal(b1-3)Gal
# Method in brief: as §1
# [19] = molecular target: Gal(b1-3)Gal(b1-4)GlcNAc
# Method in brief: as §1
# [20] = molecular target: Gal(b1-3)GalNAc
# Method in brief: as §1
# [21] = molecular target: Gal(b1-3)GalNAc(a1-3)[Fuc(a1-2)]Gal(b1-4)Glc
# Method in brief: as §1
# [22] = molecular target: Gal(b1-3)GalNAc(a1-3)[Fuc(a1-2)]Gal(b1-4)GlcNAc
# Method in brief: as §1
# [23] = molecular target: Gal(b1-3)GalNAc(b1-3)Gal
# Method in brief: as §1
# [24] = molecular target: Gal(b1-3)GalNAc(b1-3)Gal(a1-4)Gal(b1-4)Glc
# Method in brief: as §1
# [25] = molecular target: Gal(b1-3)GalNAc(b1-4)Gal(b1-4)Glc
# Method in brief: as §1
# [26] = molecular target: Gal(b1-3)GalNAc(b1-4)[Neu5Ac(a2-3)]Gal(b1-4)Glc
# Method in brief: as §1
# [27] = molecular target: Gal(b1-3)GlcNAc
# Method in brief: as §1
# [28] = molecular target: Gal(b1-3)GlcNAc(a1-3)Gal(b1-4)GlcNAc
# Method in brief: as §1
# [29] = molecular target: Gal(b1-3)GlcNAc(a1-6)Gal(b1-4)GlcNAc
# Method in brief: as §1
# [30] = molecular target: Gal(b1-3)GlcNAc(b1-2)Man
# Method in brief: as §1
# [31] = molecular target: Gal(b1-3)GlcNAc(b1-2)Man(a1-3)[Gal(b1-3)GlcNAc(b1-2)Man(a1-6)]Man(b1-4)GlcNAc(b1-4)GlcNAc
# Method in brief: as §1
# [32] = molecular target: Gal(b1-3)GlcNAc(b1-2)Man(a1-3)[Gal(b1-3)GlcNAc(b1-2)Man(a1-6)]Man(b1-4)GlcNAc(b1-4)[Fuc(a1-6)]GlcNAc
# Method in brief: as §1
# [33] = molecular target: Gal(b1-3)GlcNAc(b1-2)Man(a1-3)[GlcNAc(b1-4)][Gal(b1-3)GlcNAc(b1-2)Man(a1-6)]Man(b1-4)GlcNAc(b1-4)GlcNAc
# Method in brief: as §1
# [34] = molecular target: Gal(b1-3)GlcNAc(b1-2)[Gal(b1-3)GlcNAc(b1-6)]Man(a1-6)[Gal(b1-3)GlcNAc(b1-2)Man(a1-3)]Man(b1-4)GlcNAc(b1-4)GlcNAc
# Method in brief: as §1
# [35] = molecular target: Gal(b1-3)GlcNAc(b1-3)Gal(b1-3)GlcNAc
# Method in brief: as §1
# [36] = molecular target: Gal(b1-3)GlcNAc(b1-3)Gal(b1-4)Glc
# Method in brief: as §1
# [37] = molecular target: Gal(b1-3)GlcNAc(b1-3)Gal(b1-4)GlcNAc
# Method in brief: as §1
binder,measurement,setting,value
B1,glycan array binding signal (z-score),[1],-0.148
same,glycan array binding signal (z-score),[2],-0.355
same,glycan array binding signal (z-score),[3],0.865
same,glycan array binding signal (z-score),[4],-0.313
same,glycan array binding signal (z-score),[5],-0.307
same,glycan array binding signal (z-score),[6],-0.377
same,glycan array binding signal (z-score),[7],1.5
same,glycan array binding signal (z-score),[8],-0.377
same,glycan array binding signal (z-score),[9],0.712
same,glycan array binding signal (z-score),[10],0.05
same,glycan array binding signal (z-score),[11],-0.292
same,glycan array binding signal (z-score),[12],-0.313
same,glycan array binding signal (z-score),[13],1.84
same,glycan array binding signal (z-score),[14],0.556
same,glycan array binding signal (z-score),[15],-0.329
same,glycan array binding signal (z-score),[16],-0.4
same,glycan array binding signal (z-score),[17],-0.409
same,glycan array binding signal (z-score),[18],-0.361
same,glycan array binding signal (z-score),[19],0.776
same,glycan array binding signal (z-score),[20],-0.125
same,glycan array binding signal (z-score),[21],-0.312
same,glycan array binding signal (z-score),[22],-0.316
same,glycan array binding signal (z-score),[23],-0.362
same,glycan array binding signal (z-score),[24],-0.278
same,glycan array binding signal (z-score),[25],-0.306
same,glycan array binding signal (z-score),[26],-0.087
same,glycan array binding signal (z-score),[27],-0.208
same,glycan array binding signal (z-score),[28],-0.348
same,glycan array binding signal (z-score),[29],0.154
same,glycan array binding signal (z-score),[30],0.314
same,glycan array binding signal (z-score),[31],3.77
same,glycan array binding signal (z-score),[32],6.74
same,glycan array binding signal (z-score),[33],-0.083
same,glycan array binding signal (z-score),[34],3.03
same,glycan array binding signal (z-score),[35],0.723
same,glycan array binding signal (z-score),[36],-0.365
same,glycan array binding signal (z-score),[37],-0.434
